Data published in the RNAGym collection of RNA variant scans (doi:10.1093/nar/gkz1192).
Read counts are not given, so values of variants with three or more changes are uncertain.

B1: CPEB3 Ribozyme (parent)
chain: UAACAGGGGGCCACAGCAGAAGCGUUCACGUCGCAGCCCCUGUCAGAUUCUGGUGAAUCUGCGAAUUCUGCUGUAUAUCUC

Variants of: B1
Experiment: self-cleavage, relative activity (ratio to wild type); higher = more cleavage; in vitro, sequencing
Summary of the method: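 Libraries of CPEB3 self-cleaving ribozyme mutants came from rounds of error-prone PCR and carried barcodes, which DNA sequencing matched to variants. In vitro transcription used T7 RNA polymerase at 37°C for 5 hours, with a further 15 min in DNase I before EDTA stopped the reaction; the ribozymes cleaved during both steps. The RNA was reverse transcribed with template switching and sequenced on Illumina. Relative activity is the cleaved/total read fraction of a variant divided by that of the unmutated ribozyme, averaged over three batches with at least 5 reads.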

Variant | self-cleavage
UAACAGGGGGUCACAGCAGAAGCGUUCACGUCGCGGCCCCUGUCAGAUCCUGGUGAAUCUGCGAAUUCGGCUGUAUAUCUC [C11U A35G U49C U69G] | 0.34
UAACAGGGGGUCACAGCAGAAGCGUUCACGUCGCGGCCCCUGUCAGAUUCUGGUGAAUCUGCGAAUUCCGCUGUAUACCUC [C11U A35G U69C U78C] | 0.95
UAACAGGGGGUCACAGCAGAAGCGUUCACGUCGCUGCCCCAGUCAGUUUCUGGUGAAUCUGCGAAUUCUGCUGUAUAUCUC [C11U A35U U41A A47U] | 0.07
UAACAGGGGGUCACAGCAGAAGCGUUCACGUCGCAGCCCCUGUCCGAUUCUGGCGAAUCUGCGAAUUCUGCUGUAUAUCUC [C11U A45C U54C] | 0.29
UAACAGGGGGUCACAGCAGAAGCGUUCACGUCGCAGCCCCUGUCCGAUUCUGGUGAAUCCGCGAAUUCUGCUUUAUAUCUC [C11U A45C U60C G73U] | 0.2
UAACAGGGGGUCACAGCAGAAGCGUUCACGUCGCAGCCCCUGUCGGAUUCUGGUGAAUCAGCGAAUUCUGCUGUAUAUCUC [C11U A45G U60A] | 0.1
UAACAGGGGGUCACAGCAGAAGCGUUCACGUCGCAGCCCCUGUCGGAUUCUGGUGAAUCUGCGAAUCCUGCUGUAUAUCUC [C11U A45G U67C] | 0.1
UAACAGGGGGUCACAGCAGAAGCGUUCACGUCGCAGCCCCUGUCUGAUCCUGGUGAAUCUGCGAAUUCUGCUGUACAUCUC [C11U A45U U49C U76C] | 0.15
UAACAGGGGGUCACAGCAGAAGCGUUCACGUCGCAGCCCCUGUCUGAUUCAGGUGAAUCUGCGAAUUCUGCUGUCUAUCUC [C11U A45U U51A A75C] | 0.21
UAACAGGGGGUCACAGCAGAAGCGUUCACGUCGCAGCCCCUGUCAGCUUCUGGUGAAUCCGCGAAUUCUGCUGUAUAUCUC [C11U A47C U60C] | 0.12
UAACAGGGGGUCACAGCAGAAGCGUUCACGUCGCAGCCCCUGUCAGAUUCUGGUGUAUCUGCGAAUACUGCUGUAUAUCUU [C11U A56U U67A C81U] | 0.13
UAACAGGGGGUCACAGCAGAAGCGUUCACGUCGCAGCCCCUGUCAGAUUCUGGUGAGUCUGCGAAUUCUGCAGUAUAUCCC [C11U A57G U72A U80C] | 0.61
UAACAGGGGGUCACAGCAGAAGCGUUCACGUCGCAGCCCCUGUCAGAUUCUGGUGAUUCCGCGAAUUCUGCUGUAUAUCUC [C11U A57U U60C] | 0.16
UAACAGGGGGUCACAGCAGAAGCGUUCACGUCGCAGCCCCUGUCAGAUUCUGGUGAAUCUGCGGAUUCUGCUGUAUAUAUC [C11U A64G C79A] | 0.24
UAACAGGGGGUAACAGCAGAAGCGUCCACUUCGCAGCCCCUGUCAGAUUCUGGUGAAUCUGCGAAUUCCGCUGUACAUCUC [C11U C12A U26C G30U U69C U76C] | 0.05
UAACAGGGGGUUACAGCAGAAGCGUUAACGACGCAGCCCCUGUCAGAUUCUGGUGAAUCAGCGAAUUCUGCUGUAUAUCUC [C11U C12U C27A U31A U60A] | 0.04
UAACAGGGGGUUACAGCAGAAGCGUUCACGUCGCAGCUCCUGCCAGAUUCUGGUGAGUCUGCGAAUUCUGCUGUAUAUCCC [C11U C12U C38U U43C A57G U80C] | 0.07

Variant | self-cleavage
UAACAGGGGGUUACAGCAGAAGCAUUCACGUCGUAGCCCCUGCCAGAUUCUGGUGAAUCUGCGAAUUCAGCUGUAUAUCUC [C11U C12U G24A C34U U43C U69A] | 0.04
UAACAGGGGGUCACAGUAGAAGCGUUCACGUCGCAGCCCCUGUCAGAUCCUGGUGAAUCUGCGAAUACUGCUGUAUAUCCC [C11U C17U U49C U67A U80C] | 0.29
UAACAGGGGGUCACAGCAGAAGGGUUCACGUCGCAGCCCCUGUCAGAUUCUGGUGAAUCUGCGAAUUCAGCUGUAUAUCUC [C11U C23G U69A] | 0.04
UAACAGGGGGUCACAGCAGAAGCGUUGACGUCGCAGCCCCUGUCAGAUACUGGUGAAUCUGCGGAUUCUGCUGUAUAUCUC [C11U C27G U49A A64G] | 0.04
UAACAGGGGGUCACAGCAGAAGCGUUGACGUCGCAGCCCCUGUCAGAUCCUGGUGAAUAUGCGAAUUCGGCUGUAUAUCUC [C11U C27G U49C C59A U69G] | 0.05
UAACAGGGGGUCACAGCAGAAGCGUUCACGUCGAAGCCCCAGUCAGACUCUGGUGAAUCUGCGAUUUCUGCUGUAUAUCUC [C11U C34A U41A U48C A65U] | 0.03
UAACAGGGGGUCACAGCAGAAGCGUUCACGUCGGAGCCCCGGUCAGAUUCUGAUGAAACUGCGAAUUCUGCUGUAUAUCUC [C11U C34G U41G G53A U58A] | 0.04
UAACAGGGGGUCACAGCAGAAGCGUUCACGUCGCAGCUCCUGUCAGAUUCCGGUGAAUCUGCGAAUUCUGCUGUAUAUCUC [C11U C38U U51C] | 0.17
UAACAGGGGGUCACAGCAGAAGCGUUCACGUCGCAGCCCAUGUCAUACUCUGGUGAAUCUGCGAAUUCUGCUGUAUAUCUC [C11U C40A G46U U48C] | 0.2
UAACAGGGGGUCACAUCAGAAGCGUUCACGUCGCAGCCCCCGUCAGAUUCUGGUGAAUCUGCGAAUUCUGCUGUAUAUCUC [C11U G16U U41C] | 0.22
UAACAGGGGGUCACAGCACAAGCGUUCUUGUCGCAGCCCCUGACAGAUUCUGGUGAAUCUGCGAAUUCCGCUGUAUAUCUC [C11U G19C A28U C29U U43A U69C] | 0.02
UAACAGGGGGUCACAGCAGAAUCGUUCACGUCGCAGCCCCUGUCAGAUUCUGGUAAAUCUGCGAAUUCUGCUGUAUACCUC [C11U G22U G55A U78C] | 0.08
UAACAGGGGGUCACAGCAGAAGCCUUCACGUCGCAGCCCCUGCCAGGUUCUGGUGAAUCUGCGAAUUCCGCCGUAUAUCUC [C11U G24C U43C A47G U69C U72C] | 0.1
UAACAGGGGGUCACAGCAGAAGCCUUCACGUCGCAGCCCCUGCCAGAUUCUGGUAAAUCCGCGAAUUCUGCUGUAUAUCUC [C11U G24C U43C G55A U60C] | 0.06
UAACAGGGGGUCACAGCAGAAGCCUUCACGUCGCAGCCCCUGCCAGAUUCUGGUGAAUCUGCGAAUUCUGCCGUAUAUCUC [C11U G24C U43C U72C] | 0.11
UAACAGGGGGUCACAGCAGAAGCGCUCACGUCGCAGCCCCUGUCCGAUUCUGGUGAAUCUGCGAAGCCUGCUGUAUAUCUC [C11U U25C A45C U66G U67C] | 0.05
UAACAGGGGGUCACAGCAGAAGCGCUCACGUCGCAGCCCCUGUCGGAUUCUGGUGAAUCUGCGAAUUCUGCUGUAAACCUC [C11U U25C A45G U76A U78C] | 0.16
